# According to PMC4336329 (PLoS ONE, 2015):
# Screen size: about 310,000 compounds; about 14,000 (4.5%) showed an effect of 50% or more. Effects have a minus sign here. This is one part of the list.
# Biological target: human ether-à-go-go-related gene (hERG) potassium channel (human, UniProt Q12809)
# Assay: primary screen, population patch clamp on CHO cells stably expressing hERG
# 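Also: peak tail current of the secondary pulse compared with the same well before compound.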
# Sequence of human ether-à-go-go-related gene (hERG) potassium channel (Q12809 whole entry, looked up): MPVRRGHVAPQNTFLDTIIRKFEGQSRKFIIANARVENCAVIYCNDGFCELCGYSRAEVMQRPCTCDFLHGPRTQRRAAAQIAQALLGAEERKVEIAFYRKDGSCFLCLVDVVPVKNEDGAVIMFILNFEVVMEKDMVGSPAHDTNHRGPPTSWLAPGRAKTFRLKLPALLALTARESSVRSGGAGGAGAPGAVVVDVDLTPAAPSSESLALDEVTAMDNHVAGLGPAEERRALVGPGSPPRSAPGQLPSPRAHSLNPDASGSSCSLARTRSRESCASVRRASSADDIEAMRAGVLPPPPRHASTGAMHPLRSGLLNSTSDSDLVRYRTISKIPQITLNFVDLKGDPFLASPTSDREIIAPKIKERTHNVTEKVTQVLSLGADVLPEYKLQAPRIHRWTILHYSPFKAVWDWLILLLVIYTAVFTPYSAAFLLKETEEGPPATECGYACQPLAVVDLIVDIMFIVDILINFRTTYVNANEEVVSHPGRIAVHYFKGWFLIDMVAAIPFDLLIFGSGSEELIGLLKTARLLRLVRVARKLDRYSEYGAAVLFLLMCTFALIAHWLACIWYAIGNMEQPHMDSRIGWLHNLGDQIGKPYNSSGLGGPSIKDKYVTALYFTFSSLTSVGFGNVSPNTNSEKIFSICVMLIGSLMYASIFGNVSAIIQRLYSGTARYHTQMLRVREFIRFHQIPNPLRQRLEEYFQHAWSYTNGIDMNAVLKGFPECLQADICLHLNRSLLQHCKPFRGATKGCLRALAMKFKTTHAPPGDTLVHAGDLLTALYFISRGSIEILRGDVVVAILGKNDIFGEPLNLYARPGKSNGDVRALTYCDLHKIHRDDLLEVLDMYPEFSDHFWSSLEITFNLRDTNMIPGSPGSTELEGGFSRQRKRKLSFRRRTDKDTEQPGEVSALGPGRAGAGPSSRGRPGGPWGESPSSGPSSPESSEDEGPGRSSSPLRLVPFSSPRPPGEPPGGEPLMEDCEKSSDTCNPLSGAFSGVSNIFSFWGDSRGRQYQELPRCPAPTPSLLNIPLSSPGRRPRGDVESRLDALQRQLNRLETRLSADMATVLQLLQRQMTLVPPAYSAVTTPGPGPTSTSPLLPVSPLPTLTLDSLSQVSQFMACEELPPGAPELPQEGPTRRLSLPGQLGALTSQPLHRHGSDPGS
row,SMILES,"hERG current change (%, negative = inhibition) at 10uM [%]"
1,CCC(C)c1ccccc1NC(=O)C(C)OC(=O)CN1C(=O)NC(C)(C)C1=O (centres unmarked),2.51
2,O=C(/C=C/c1ccccc1)C1=C(O)C(=O)N(CCO)C1c1cccc([N+](=O)[O-])c1 (centres unmarked),21.3
3,CC(=O)c1c(COC(=O)c2ccc(Cl)cc2)nc2ccccc2[n+]1[O-],2.71
4,COC(=O)C1=C(C)N(CC2CC2)C(=O)N[C@H]1c1ccccc1,8.11
5,COc1ccc(NC(=O)CSc2nnc(Cn3nnc4ccccc43)n2C)cc1,2.27
6,CCc1ccccc1N(C)S(=O)(=O)c1ccc(-c2cc(C)no2)s1,11.8
7,O=c1[nH]c(Nc2nc3ccccc3o2)nc2c1CCCC2,9.44
8,O=C(CCNC(=O)c1ccc(Cl)cc1)NCc1cccc(C(F)(F)F)c1,-8.98
9,Cc1cc(C)n2nc3nc(N4CCCCC4)nc(-c4ccco4)c3c2n1,13.5
10,COC(=O)C1=C(C)NC(=S)N(C(C)=O)C1c1ccc(OC)c(OC)c1 (centres unmarked),-3.49
11,CCC(NC(=O)COC(=O)C1CC2CCCC(C1)C2=O)c1ccc(Br)cc1 (centres unmarked),-13
12,CCOc1ccc(C(C(=O)NCC2CCCO2)N(Cc2cccs2)C(=O)c2snc(C(N)=O)c2N)cc1 (centres unmarked),4.91
13,CCN(CC(=O)NCc1ccc(Cl)cc1)C(=O)CCOc1ccc(C)cc1,-82.6
14,COC(=O)c1c(/N=C/NOCc2ccc(Cl)cc2)sc2c1CCN(c1ncc(C(F)(F)F)cc1Cl)C2,5.58
15,CCc1ccc(NC(=O)C2C3CCC(O3)C2C(=O)O)cc1 (centres unmarked),19.1
16,COc1cccc(N2CCN(C(=O)CN3C(=O)NC(C)(c4ccc5ccccc5c4)C3=O)CC2)c1 (centres unmarked),-16.5
17,COC(=O)N/N=C/c1cccc(OC(=O)c2ccc3c(c2)OCO3)c1,2.2
18,COc1cccc(OC)c1NC(=O)Cc1nn(C)c(=O)c2ccccc12,15.8
19,CCOC(=O)N1CCN(C(=O)c2ccc3c(c2)sc2nc(-c4ccccc4)cn23)CC1,-49.3
20,O=[N+]([O-])c1ccc(N/N=C/c2cccc(O)c2)cc1,15.4
21,COc1ccc(OC)c(CNS(=O)(=O)c2c(C)nc3scc(C)n3c2=O)c1,-1.86
22,CC(=O)Nc1ccc(C2=NN(Cc3nnc(-c4ccccc4)o3)C(=O)SC2)cc1,-16.6
23,CC(NC(=O)C1CC2CCCC(C1)C2=O)c1ccccc1 (centres unmarked),-4.45
24,CC(C)N(C(=O)COC(=O)CNS(=O)(=O)c1ccccc1F)c1ccccc1,-10.4
25,O=C(NC1CCCc2ccccc21)N[C@@H](Cc1ccccc1)C(=O)O (some centres unmarked),-0.795
26,COc1cc(Cl)ccc1OCc1cc(C(=O)NC(C)Cc2cnccn2)no1 (centres unmarked),-53.8
27,O=C(OC1CCCCC1=O)c1cc(=O)c2ccccc2o1 (centres unmarked),15.2

row,SMILES,"hERG current change (%, negative = inhibition) at 10uM [%]"
1,COc1ccc(NS(=O)(=O)c2cc(NC(=O)CC(C)(C)C)ccc2N2CCCC2)cc1,-8.54
2,CN(C)C(=O)CCC(=O)N1CCCC(C(=O)c2ccc(C(F)(F)F)cc2)C1 (centres unmarked),4.35
3,CC(=O)C1C(c2ccccc2)c2c(n[nH]c2C)CC1(C)O (centres unmarked),13.2
4,CC(C)(C)c1nc(CN2CCOCC2)cc(CN2CCOCC2)c1O.Cl,-15
5,N#CC1=C(N)n2c(s/c(=C\c3ccco3)c2=O)=C(C#N)C1c1ccco1 (centres unmarked),-18.6
6,O=C(OCc1ccccc1)/C(=C/c1cccc([N+](=O)[O-])c1)NC(=O)c1ccco1,-63.3
7,COc1ccc(CCNC(=O)C2CCN(C(=O)c3ccc(F)cc3)CC2)cc1OC,13.1
8,CC(C)CNC(=O)NC(=O)COC(=O)c1cc([N+](=O)[O-])ccc1NCc1ccccc1Cl,10.1
9,COc1cc(/C=N/O)c(Br)cc1OCC(=O)Nc1ccccc1C,11.1
10,COc1ccc(N(C(=O)c2snc(C(N)=O)c2N)C(C(=O)NC2CCCCC2)c2ccc(C)o2)cc1 (centres unmarked),5.37
11,Nc1nnc(SCC(=O)NC2CCCCCCC2)s1,16.9
12,CC(OC(=O)c1ccc2c(c1)C(=O)N(Cc1ccncc1)C2=O)C(=O)Nc1cccc(Cl)c1Cl (centres unmarked),-11.1
13,CCOc1ccccc1OCC(=O)Nc1cccc(S(=O)(=O)NC2=NCCCCC2)c1,-30.7
14,CN1CCN(C(=O)c2cc3ccccc3[nH]2)CC1,-3.26
15,COc1ccc(/C=N/N(C)c2cc(=O)n(C)c(=O)[nH]2)cc1OC,1.39
16,Cc1nn(-c2ccccc2)c2c1C(c1ccncc1)C(C#N)=C(N)O2 (centres unmarked),0.763
17,Cc1ccc(-c2nnn(CC(=O)NCCC3=CCCCC3)n2)cc1,17.8
18,CCc1cc(C(=O)Nc2cc(S(=O)(=O)N(CC)CC)ccc2N2CCOCC2)sc1C,4.41
19,Cc1nc2ccccc2c(=O)n1/N=C/c1ccc(C(C)C)cc1,0.213
20,O=C1CCc2nc3ccccc3c(=O)n2N1,6.03
21,O=C(NCc1ccco1)c1ccc(N2CCCC2=O)cc1,4.3
22,CC(=O)OC(C(=O)N1CCN(c2ccc(F)cc2)CC1)c1ccccc1 (centres unmarked),-15.9
23,Cc1ccc2cc(CN(CC3CCCO3)C(=O)C(C)C)c(=O)[nH]c2c1 (centres unmarked),-12.2
24,CC/C(=N/NC(=O)c1ccc2c(c1)OCO2)c1ccccc1O,-9.92
25,Nc1ccccc1-n1cccc1,10.5
26,COC1C(OC(=O)c2ccc(C)[nH]2)C(O)C(Oc2ccc3c(O)c(NC(=O)c4ccc(O)c(CC=C(C)C)c4)c(=O)oc3c2Cl)OC1(C)C (centres unmarked),13.1
